Measurements taken from the BET-seq Pho4 binding data (Le et al. 2018).
The other results are listed elsewhere or left out. The energies were worked out here from pooled read counts, against the library average; single values are noisy.

Molecular target: T1, Pho4 (S. cerevisiae) (UniProt P07270)
T1 sequence: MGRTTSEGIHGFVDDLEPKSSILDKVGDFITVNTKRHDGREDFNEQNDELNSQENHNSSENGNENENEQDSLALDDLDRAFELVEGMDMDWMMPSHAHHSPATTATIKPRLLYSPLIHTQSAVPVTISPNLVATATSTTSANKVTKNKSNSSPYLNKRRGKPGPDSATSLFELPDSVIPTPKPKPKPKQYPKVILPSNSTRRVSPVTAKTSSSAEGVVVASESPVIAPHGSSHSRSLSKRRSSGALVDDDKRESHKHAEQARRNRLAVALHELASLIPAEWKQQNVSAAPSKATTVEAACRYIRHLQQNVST
Test: relative binding free energy (BET-seq); higher = weaker binding
Details: reference: library average

Sequence | relative binding free energy [kcal/mol]
GTTGACACGTGGTTTG | -0.01
CGAGGCACGTGTATTG | -0.24
ATGGGCACGTGGATGT | -0.13
AGTGACACGTGAATGG | 0.26
TACAGCACGTGTGGCG | 0.12
TGTAACACGTGTCGCG | 0.05
TAATACACGTGCGGTG | 0.1
TCGTTCACGTGTGTGA | 0.22
GTTAGCACGTGATCGG | 0.12
TTTTCCACGTGTATTA | 0.05
GAGATCACGTGGGGCG | 0.09
AATTACACGTGATAGG | 0.03
GGCTACACGTGGGTGT | 0.06
TTGTGCACGTGAGTAC | 0.18
TGTTCCACGTGGCGGG | 0.05
TGTTTCACGTGTCATG | 0.28
ATAATCACGTGGTCTA | 0.06
TACGGCACGTGTATTT | 0.04
GAGTTCACGTGTGTGG | 0.37
GTAAACACGTGACGGG | 0.18
GGTTTCACGTGGCTAA | 0.3
TTGTTCACGTGGCTCT | 0.19
CGGATCACGTGGATGT | 0.08

Sequence | relative binding free energy [kcal/mol]
TTGGGCACGTGCAAGA | -0.1
GAGGACACGTGGGCGC | 0
TGATACACGTGATGGA | 0.14
TCGTGCACGTGGGATT | -0.04
CTAAGCACGTGGGAGT | -0.03
AGTTACACGTGTGTCT | 0.05
TCAGGCACGTGGACGG | -0.12
AGAGTCACGTGAGGCT | 0.39
TATTTCACGTGCGGTA | 0.31
GTTACCACGTGTGTAT | 0.05
AGAGGCACGTGGCGGG | -0.11
CTGGCCACGTGGGTAG | -0.25
GAATACACGTGTTTGT | 0.08
TTTCACACGTGAAAGT | 0.31
CAGTGCACGTGCAGGG | -0.19
GTGGTCACGTGAATAC | 0.44
AAGAGCACGTGGGGTG | -0.25
TTTTGCACGTGTACAC | 0.17
CGGAGCACGTGGTGTA | -0.19
TGTTACACGTGTTGTC | 0.11
GATTTCACGTGAGTGA | 0.32
TGGCTCACGTGAAGGA | 0.4
TTTTCCACGTGAGTGA | 0.22

Sequence | relative binding free energy [kcal/mol]
GGTTGCACGTGTTGTT | 0.13
AGTTGCACGTGTAAGA | 0.1
TCAAGCACGTGGTTGT | -0.09
GAAGGCACGTGCTGTG | -0.09
TTCTTCACGTGTGTTG | 0.11
TAATTCACGTGTGATC | 0.35
CTTATCACGTGGGTGG | -0.01
ACTGGCACGTGTGCGG | -0.26
GTGAGCACGTGTAGTG | -0.02
TAATTCACGTGACTGT | 0.41
GAGATCACGTGTTATG | 0.33
ATTTTCACGTGGATTA | 0.27
TAGAGCACGTGGTGAA | -0.04
GGAAGCACGTGGTTGA | -0.23
CCAGTCACGTGTTGGT | 0.06
GCTATCACGTGAGTTT | 0.44
TATAGCACGTGATGTG | -0.01
TTGGACACGTGAGGCT | 0.18
TCGTTCACGTGGAAAG | 0.28
CTTAGCACGTGTGAAT | 0.09
CGGTGCACGTGTGAGA | 0.05
GGTGACACGTGGTGTA | -0.19
TTCGGCACGTGGAGCT | -0.08

Sequence | relative binding free energy [kcal/mol]
ATTGACACGTGCTTGT | -0.05
GGTTACACGTGATCAT | 0.42
TGATTCACGTGTTGAC | 0.6
AGCGTCACGTGGTCGT | 0.01
TAACGCACGTGGGGGG | -0.27
CTGTGCACGTGTCGGG | 0.08
GCGAGCACGTGGTTGA | -0.07
GGCTGCACGTGGTATG | -0.11
TGTTACACGTGAGGGT | 0.27
GAAAGCACGTGTGGTT | -0.11
ATCTTCACGTGTTAGT | 0.12
CTAGGCACGTGATCGG | -0.15
AGTGTCACGTGGGGTC | -0.01
GGACTCACGTGAGAGT | 0.46
TGCCGCACGTGCGGGG | -0.3
ATTGTCACGTGTAGTC | 0.08
TAGGACACGTGATGGC | 0.19
TGGGGCACGTGGTACG | -0.28
AGTTTCACGTGTGACG | 0.36
ATTGGCACGTGAGATG | 0.05
TAGCCCACGTGGTTGT | -0.05
TAGGTCACGTGTTGGA | 0.21
AGTTGCACGTGTGCTA | 0.05

Sequence | relative binding free energy [kcal/mol]
AATTACACGTGTCTGG | 0.08
TTGCTCACGTGGCGAT | 0.18
CATGACACGTGTGGGC | 0.08
AAGAACACGTGAGGTT | 0.36
GCGGACACGTGAGTGT | 0.3
ACTTTCACGTGTATGT | 0.18
TGGGGCACGTGCGCAG | -0.17
TATGGCACGTGAGGTG | 0.06
AGGTACACGTGTTAAT | 0.02
GGTCGCACGTGGTGTG | -0.03
TGTAGCACGTGTTTGG | -0.09
GGCTTCACGTGCGTGT | 0.24
TATGTCACGTGAATGG | 0.3
AGAATCACGTGAGGTT | 0.31
GGTGACACGTGGTATG | -0.03
AAGTGCACGTGCGTAT | -0.06
TCTTCCACGTGGTTGG | 0.03
TCGGTCACGTGATAGT | 0.14
GGATTCACGTGGGCGT | 0.1
ATTATCACGTGTGGGT | 0.18
TAGGGCACGTGGAGAA | -0.18
TTCAGCACGTGGTTGT | -0.05
TTTTGCACGTGGGTTA | -0.06
